Measurements reported in the supplement of paper PMC3334620.
Over roughly 33,000 sequences, “E-score (-0.5 to 0.5)” has its median near -0.013; the highest 2% begin near 0.3. This is one part of the list.

target: T1, Msn1 (UniProt P22148); experiment: PBM E-score (8-mer binding enrichment) (E-score (-0.5 to 0.5)); higher = stronger / more preferred TF binding; most listed sequences are background and not binding sites; conditions: protein concentration: 200 nM; construct: GST-full length
T1 sequence: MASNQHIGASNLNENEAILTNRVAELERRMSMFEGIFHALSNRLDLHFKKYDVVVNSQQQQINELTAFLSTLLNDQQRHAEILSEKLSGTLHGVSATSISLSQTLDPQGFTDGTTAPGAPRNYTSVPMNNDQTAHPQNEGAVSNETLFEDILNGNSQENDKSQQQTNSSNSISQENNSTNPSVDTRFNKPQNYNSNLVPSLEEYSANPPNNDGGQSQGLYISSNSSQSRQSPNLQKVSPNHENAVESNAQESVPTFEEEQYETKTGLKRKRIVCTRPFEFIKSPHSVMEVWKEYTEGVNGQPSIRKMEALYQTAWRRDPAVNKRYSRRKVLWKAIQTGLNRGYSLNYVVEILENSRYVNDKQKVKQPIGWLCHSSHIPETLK
Method in brief: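 Using PURExpress in vitro transcription/translation, GST-tagged yeast transcription factors were made in full-length or DNA-binding-domain form. These were applied at about 100-200 nM to double-stranded universal all-10-mer Agilent arrays, and bound protein was detected with fluorescent anti-GST. Scans were normalised with masliner before the Universal PBM Analysis Suite assigned E-scores to ungapped eight-base words pooled with their reverse complements.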

Sequence	PBM E-score
CCGAGAAA	0.219
ACTAGCAG	0.00056
CTGTAGTC	-0.112
AGCTCTAC	-0.104
GGTAATAC	0.0852
ATAAGTTA	0.024
CCAGCAGC	-0.167
AGGGTCAA	-0.00408
ACCGATAA	0.157
AGCCCTTA	-0.105
GTCGTAAC	-0.0291
GAAGCGCA	-0.0292
GCCTCTAC	-0.132
AGATTATC	-0.0624
AGTCCACG	-0.059
ATTACCGA	0.138
CACATTCG	0.0622
ATCGGTGA	0.107
AGCGAAGG	-0.12
CCGTTATC	0.129
CTCCCTAA	-0.229
AATGCTCA	-0.0432
CCCTAGCG	-0.35
ACAATCAA	0.0284

Sequence	PBM E-score
GACGGAGC	-0.156
AACGACAA	0.262
AAATGATG	0.226
ATAGATTA	0.153
GCCCGAAA	0.186
CCGCTTTA	-0.0465
GGGTGTTA	0.0537
AGACGCTG	-0.278
GCCGTCCA	-0.13
CATCGCAG	-0.00146
CGCGAACA	0.113
CTTTCCGA	0.122
ATGACCGC	-0.19
ACTGATCA	0.0523
AATTGCTC	-0.044
AGGTATGA	0.0198
ATGCAACG	-0.0419
ACAACGTC	-0.114
GGCTTCCA	-0.289
ATGATAAC	0.155
GATGAGCC	-0.173
GACGGTAC	0.0456
CAGATCTA	0.0932
ATCACATA	0.0742

Sequence	PBM E-score
CACCATGA	-0.0369
CACGGGTC	-0.076
CGCCCCTC	-0.323
GGATTCCA	0.183
CTTACATC	0.0126
GAGACGGA	-0.0328
TACCGTGA	-0.128
ATAGAGCG	-0.0637
CTTGAGTC	-0.0248
ATGGTGCA	-0.12
ACTGTCAA	0.0974
CTGACTTA	0.069
ACTTCTCT	-0.0383
AATTGCCC	0.0445
AGCAGGCT	-0.236
ATCGCCCG	-0.112
ACCGGTCA	-0.0314
CCAGAACG	0.151
GAGTCCAA	-0.0901
GTACGCAC	-0.121
CCATCGTC	-0.186
CACTGGTA	-0.102
ATCACTAG	-0.0267
GGTACACC	-0.204

Sequence	PBM E-score
AATAGAAT	0.0217
CAGAAAAC	0.0413
GTCAACAC	0.00323
ACGGCTCG	0.0879
AATGTACT	0.364
CTAGTCCC	0.143
TGACGGCA	-0.0952
CAACAGAC	0.171
CACCGGTA	0.0943
TATTCGAA	-0.00052
CAGCTGTA	-0.0452
AGGTTAGC	-0.205
AGAACACA	0.0398
CGAACATA	0.128
CTATGTGA	0.0225
GGATCCCA	0.0447
TAGACCAA	-0.023
GCACCTAC	-0.194
CAGTCAAG	0.0323
AGCGGCTA	-0.0179
ATTGCGCC	0.0139
AGACATAG	0.32
